Results reported in PubChem BioAssay AID1461 (National Center for Advancing Translational Sciences (NCATS), 2008).
Among all 220,000 compounds or so, about 2,300 (1%) were called active. Inconclusive means that the source gave no clear call. Such entries were picked first, then a sample of the others. Calls follow the shape of the dose curve; as a rule, active = well fitted inhibition curve with a large enough effect; inconclusive = small, poorly fitted or top-dose-only effect, or effect the other way; inactive = no such curve, though single readings can be large or run the other way. No potency is given beside an inconclusive call; the fits are too rough.
Also: nearly all actives have a fitted effect of over 50% in size.
Potency is read from the fitted curve at half-maximal effect; tags tell the direction and shape of the fitted curve.

Each molecule was assayed against Neuropeptide S receptor (Homo sapiens) (UniProt Q6W5P4) (assay: qHTS Assay for Antagonists of the Neuropeptide S Receptor: cAMP Signal Transduction). Settings: CHO-NPSR cells, cAMP TR-FRET, antagonist mode; series mostly up to 38.3 µM.
Sequence of UniProt Q6W5P4 (Q6W5P4 whole entry, looked up): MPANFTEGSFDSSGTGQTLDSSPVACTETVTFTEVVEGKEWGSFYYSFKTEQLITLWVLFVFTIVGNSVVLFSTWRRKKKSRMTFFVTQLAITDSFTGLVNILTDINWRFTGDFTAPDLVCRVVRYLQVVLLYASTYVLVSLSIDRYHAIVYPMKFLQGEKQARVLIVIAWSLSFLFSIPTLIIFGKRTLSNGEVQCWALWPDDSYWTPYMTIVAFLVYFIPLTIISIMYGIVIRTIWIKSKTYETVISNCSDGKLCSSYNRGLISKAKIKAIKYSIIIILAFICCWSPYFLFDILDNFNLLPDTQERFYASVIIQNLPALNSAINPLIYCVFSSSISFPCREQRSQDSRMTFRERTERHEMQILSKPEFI
In the case of `COc1ccc(C(=O)Oc2cc(/C=N/NS(=O)(=O)c3ccc(C)cc3)ccc2OC)cc1`, the Potency was inconclusive [inhibitor, partial curve].
`Cc1ccc(Cn2c(=N)n(CC(=O)c3ccc([N+](=O)[O-])cc3)c3ccccc32)cc1` was tested, and the Potency was inconclusive [inhibitor, single point].
`CN(CC(=O)OCC(=O)Nc1ccccc1)S(=O)(=O)c1ccc(Cl)cc1` was tested, and the Potency was “inactive”.
In the case of `Cc1ccc(-n2c(SCc3ccc([N+](=O)[O-])cc3)nc3ccccc3c2=O)cc1`, the Potency was inconclusive [inhibitor, partial curve].
`O=[N+]([O-])c1ccc(Sc2cccc3cccnc23)c2cccnc12` was tested, and the Potency was inconclusive [activator, partial curve].
For `CSc1nc(-c2ccc(Cl)cc2)nc(N)c1C#N`, the Potency was inconclusive [inhibitor, single point].
In the case of `c1ccc(SCCOCCn2cncn2)cc1`, the Potency was “inactive”.
In the case of `COC(=O)c1cn(C)c2ccc(S(=O)(=O)N3CC(C)CC(C)C3)cc2c1=O` (centres undefined), the Potency was inconclusive [inhibitor, partial curve].
For `O=C(O)CCCCCCNS(=O)(=O)c1ccccc1`, the Potency was “inactive”.
For `COC(=O)C1=C(C)N(Cc2ccccc2)C(=O)/C1=C\c1ccco1`, the Potency was inconclusive [inhibitor, single point].
`O=[N+]([O-])c1cc([N+](=O)[O-])c(N2CCCCCC2)cc1NCCO` was tested, and the Potency was “inactive”.
For `O=C(CSc1ccc(Cl)cc1)Nc1nnc(-c2cccc([N+](=O)[O-])c2)s1`, the Potency was “inactive”.
With `CCOc1ccc(N2C(=O)CS/C2=C(\C(Cl)=C(Cl)Cl)[N+](=O)[O-])cc1` the Potency was “inactive”.
With `COC(=O)c1ccc(COC(=O)c2ccc(-n3cnnn3)cc2)o1` the Potency was “inactive”.
`Cc1c(C(=O)N(C)C)sc(NC(=O)c2cc([N+](=O)[O-])cc([N+](=O)[O-])c2)c1C#N` was tested, and the Potency was inconclusive [inhibitor, single point].
For `Cc1nc(-c2cc(C#N)c(Sc3ccc(Cl)cc3Cl)nc2C)cs1`, the Potency was inconclusive [activator, single point].
For `CN(C)CCC1Sc2ccccc2Oc2ccccc21` (centres undefined), the Potency was inconclusive [activator, single point].
In the case of `O=C(C1=NN[C@@H]2C(=O)N(c3cccc(F)c3)C(=O)[C@H]12)c1cnccn1`, the Potency was “inactive”.
With `O=C(CSc1ccc(F)cc1)N1CCN(S(=O)(=O)c2ccccc2)CC1` the Potency was “inactive”.
For `N#Cc1c(NC(=O)CCCN2C(=O)c3ccccc3C2=O)oc(-c2ccccc2)c1-c1ccccc1`, the Potency was inconclusive [inhibitor, single point].
In the case of `CC(=NCCc1c(C)[nH]c2ccc(OC(F)(F)F)cc12)C1=C(O)CC(c2ccccc2)CC1=O` (centres undefined), the Potency was active: 10 µM.
In the case of `COC(=O)C(C)n1cnc2c(nnn2-c2cccc(Cl)c2)c1=O` (centres undefined), the Potency was inconclusive [inhibitor, full curve, poor fit].
`CCOC(=O)c1c(CN2CCOCC2)n(-c2ccccc2)c2cc(Br)c(O)c(CN(C)C)c12` was tested, and the Potency was inconclusive [inhibitor, partial curve].
`O=C(NCCc1ccc(Cl)cc1)C1CCN(S(=O)(=O)N2CCC3(CC2)OCCO3)CC1` was tested, and the Potency was inconclusive [inhibitor, single point].
For `Cc1nn(-c2ccccc2)c(Cl)c1/C=C/C(=O)c1ccccc1`, the Potency was inconclusive [inhibitor, partial curve, poor fit].
For `OCCc1ccc(-c2ccc(Cl)cc2)o1`, the Potency was inconclusive [activator, single point].
`CCCCNC(=O)C1c2ccccc2C(=O)N(c2ccc(OC)cc2)C1c1ccc(OC)cc1` (centres undefined) was tested, and the Potency was inconclusive [inhibitor, single point].
In the case of `CCN(CC)S(=O)(=O)c1ccc(C(=O)Nc2ccc(OCC(=O)N3CCOCC3)cc2)cc1`, the Potency was inconclusive [inhibitor, single point].
In the case of `CC(C)c1ccc(-c2nc(N3CCCCCC3)nc3n[nH]c(N)c23)cc1`, the Potency was inconclusive [inhibitor, partial curve, poor fit].
In the case of `Cc1nc2ccccc2c(-c2ccccc2)c1C(=O)c1ccccc1`, the Potency was inconclusive [inhibitor, single point].
With `O=C(O)CCC(=O)Nc1ccc(S(=O)(=O)N2CCCC2)cc1` the Potency was “inactive”.
For `Clc1ccc(C2C3=C(Nc4ncnn42)c2ccccc2CC3)cc1` (centres undefined), the Potency was inconclusive [inhibitor, partial curve].
For `O=C(CCSc1ccc(Cl)c(Cl)c1)NC12CC3CC(CC(C3)C1)C2`, the Potency was inconclusive [inhibitor, partial curve].
`Cc1nc(SCC(=O)Nc2cc(C)on2)c2c3c(sc2n1)CCCC3` was tested, and the Potency was inconclusive [inhibitor, single point].
For `CCCCS/C(N)=N/N=C/c1ccccc1O`, the Potency was “inactive”.
`Oc1ccc(F)cc1-c1cc(-c2ccc3c(c2)OCCO3)n[nH]1` was tested, and the Potency was inconclusive [inhibitor, single point].
For `CN(C)c1ccc(-c2nc3ccccn3c2/N=C/c2ccc(Br)cc2)cc1`, the Potency was active: 10 µM.
With `COc1ccc(OC)c(S(=O)(=O)N2c3cc(F)ccc3CCC2C)c1` (centres undefined) the Potency was inconclusive [inhibitor, partial curve].
In the case of `COc1ccc(-n2nnc3c(SCC(=O)c4ccccc4)ncnc32)cc1`, the Potency was inconclusive [inhibitor, partial curve].
For `COc1ccccc1N1C(=O)S/C(=C\c2cc(C)n(C)c2C)C1=O`, the Potency was “inactive”.
For `CC(C)OC(=O)CSc1ncnc2c1cnn2-c1ccccc1`, the Potency was inconclusive [inhibitor, partial curve, poor fit].
`COc1ccc(CCNC(=O)CSc2cc(=O)[nH]c(N)n2)cc1OC` was tested, and the Potency was inconclusive [inhibitor, single point].
For `O=c1c2[nH]c3cccc(Cl)c3c2ncn1Cc1ccco1`, the Potency was inconclusive [activator, single point].
In the case of `Cc1cc(NC(=O)c2cccc(S(=O)(=O)N(C)C)c2)n(-c2ccccn2)n1`, the Potency was inconclusive [inhibitor, partial curve].
